From the supplement of paper PMC8047034 come the findings set out here.

Where a name gives a salt, the structure may show the parent alone. The list shows a part of the results. Repeats are few or missing, and single values can be far off.

The subject of the test is OVCAR4. Kind of test: log2 surviving fraction (library drug vs vehicle, or drug + carboplatin vs carboplatin alone; relative to plate median); ovarian cancer lines: OVCAR4 is platinum-sensitive and Ov4Carbo platinum-resistant; higher = more cell survival. To be noted: library drug concentration 10 µM; 7 days; carboplatin co-treatment 0 µM.
In the case of `CCCCc1nc(Cl)c(CO)n1Cc1ccc(-c2ccccc2-c2nnn[nH]2)cc1` [Losartan potassium], the log2 surviving fraction came to 0.932.

Consider `CC(C)CC(N)=O` [Isovaleramide], for which the log2 surviving fraction worked out at 0.498.

With `CN1Cc2c(N)cccc2C(c2ccccc2)C1` (centres undefined) [Nomifensine Maleate], the log2 surviving fraction is -0.54.

For the compound `CS(=O)(=O)c1ccc([C@@H](O)[C@@H](CO)NC(=O)C(Cl)Cl)cc1` [Thiamphenicol (Thiophenicol)], the log2 surviving fraction was -0.728.

Turning to `CCCCCCCCOc1ccccc1C(=O)Nc1ccc(C(=O)OCC[N+](C)(CC)CC)cc1` [Otilonium Bromide], the log2 surviving fraction came out at 0.877.

On to `c1ccc(C2CN3CCSC3=N2)cc1` (centres undefined) [Tetramisole HCl], for which the log2 surviving fraction was 0.406.

As to `Nc1ccn(C[C@@H](CO)OCP(=O)(O)O)c(=O)n1` [Cidofovir (Vistide)], the log2 surviving fraction was -0.883.

With `COc1c(C)c2c(c(O)c1C/C=C(\C)CCC(=O)O)C(=O)OC2` [Mycophenolic (Mycophenolate)], the log2 surviving fraction was -4.88.

Consider `CCC[C@@H]1C[C@@H](C(=O)N[C@@H]([C@H]2O[C@H](SC)[C@H](O)[C@@H](O)[C@H]2O)[C@@H](C)O)N(C)C1` [Lincomycin hydrochloride (Lincocin)], for which the log2 surviving fraction turned out to be 0.399.

`Cn1c(=O)c2[nH]cnc2n(C)c1=O` [Aminophylline (Truphylline)]: the log2 surviving fraction was -9.2.

Turning to `CN(C)[C@@H]1C(O)=C(C(N)=O)C(=O)[C@@]2(O)C(O)=C3C(=O)c4c(O)cccc4[C@@](C)(O)[C@H]3[C@H](O)[C@@H]12` [Oxytetracycline (Terramycin)], the log2 surviving fraction turned out to be 1.03.

On to `CN/C(=N\CCSCc1nc[nH]c1C)NC#N` [Cimetidine (Tagamet)], for which the log2 surviving fraction was determined as 0.702.

On to `N#CC[C@H](C1CCCC1)n1cc(-c2ncnc3[nH]ccc23)cn1`, for which the log2 surviving fraction was 0.551.

As to `Cn1cnc([N+](=O)[O-])c1Sc1ncnc2[nH]cnc12` [Azathioprine (Azasan, Imuran)], the log2 surviving fraction was -2.43.

Take `Cc1nnc(C(=O)NC(C)(C)c2nc(C(=O)NCc3ccc(F)cc3)c(O)c(=O)n2C)o1` [Raltegravir (MK-0518)]: the log2 surviving fraction is 0.411.

As to `NCCS` [Cysteamine HCl], the log2 surviving fraction came out at 1.19.

With `CCOc1nc2cccc(C(=O)O)c2n1Cc1ccc(-c2ccccc2-c2nnn[nH]2)cc1` [Candesartan (Atacand)], the log2 surviving fraction is 0.647.

As to `Cc1nccn1CC1CCc2c(c3ccccc3n2C)C1=O` (centres undefined) [Ondansetron hydrochloride (Zofran)], the log2 surviving fraction is 0.74.

For the compound `COc1ccc(CN2CCN(C(c3ccc(F)cc3)c3ccc(F)cc3)CC2)c(OC)c1OC` [Lomerizine HCl], the log2 surviving fraction is 0.0264.

Consider `CN1CCN(C2=Nc3ccccc3Oc3ccc(Cl)cc32)CC1` [Loxapine Succinate], for which the log2 surviving fraction is -0.0479.

Take `CC(NC(C)(C)C)C(=O)c1cccc(Cl)c1` (centres undefined) [Amfebutamone (Bupropion)]: the log2 surviving fraction amounted to 1.1.

As to `CC(=O)OCC1=C(C(=O)O)N2C(=O)[C@@H](NC(=O)CSc3ccncc3)[C@H]2SC1` [Cephapirin Sodium], the log2 surviving fraction is -0.614.

For the compound `C[C@@H](O[C@H]1OCCN(Cc2nn(P(=O)(O)O)c(=O)[nH]2)[C@H]1c1ccc(F)cc1)c1cc(C(F)(F)F)cc(C(F)(F)F)c1` [Fosaprepitant dimeglumine], the log2 surviving fraction was -1.38.

`COc1cc(Cc2cnc(N)nc2N)cc(OC)c1OC` [Trimethoprim]: the log2 surviving fraction was 0.499.

Take `C#C[C@]1(O)CC[C@H]2[C@@H]3CCC4=CC(=O)CC[C@@H]4[C@H]3CC[C@@]21CC` [Levonorgestrel (Levonelle)]: the log2 surviving fraction amounted to 0.231.

For the compound `CNCC(O)c1ccc(O)c(O)c1` (racemic) [DL-Adrenaline], the log2 surviving fraction is -0.863.

Regarding `CCN(CC)CCNC(C(=O)OCCC(C)C)c1ccccc1` (centres undefined) [Camylofin Chlorhydrate], the log2 surviving fraction is -0.327.

Take `CCN(CC)C(=O)/C(C#N)=C/c1cc(O)c(O)c([N+](=O)[O-])c1` [Entacapone]: the log2 surviving fraction is 0.569.

Consider `CC(=O)[C@H]1CC[C@H]2[C@@H]3CCC4=CC(=O)CC[C@]4(C)[C@H]3CC[C@]12C` [Progesterone (Prometrium)], for which the log2 surviving fraction was -2.32.

`CC1CC(OC(=O)C(O)c2ccccc2)CC(C)(C)C1` (centres undefined) [Cyclandelate]: the log2 surviving fraction was -0.0541.

Regarding `O=c1[nH]c(=O)n(C2CCCO2)cc1F` (centres undefined) [Ftorafur], the log2 surviving fraction was found to be 0.771.

In the case of `CC[C@H](C)C[C@H](C)CCCCCCCCC(=O)N[C@H]1C[C@@H](O)[C@@H](NCCN)NC(=O)[C@@H]2[C@@H](O)CCN2C(=O)[C@H]([C@H](O)CCN)NC(=O)[C@H]([C@H](O)[C@@H](O)c2ccc(O)cc2)NC(=O)[C@@H]2C[C@@H](O)CN2C(=O)[C@H]([C@@H](C)O)NC1=O` [Caspofungin acetate], the log2 surviving fraction was found to be 0.721.

With `CC(=O)O[C@H]1C[C@@H]2CC[C@@H]3[C@H](CC[C@@]4(C)[C@H]3C[C@H]([N+]3(C)CCCCC3)[C@@H]4OC(C)=O)[C@@]2(C)C[C@@H]1N1CCCCC1` [Vecuronium Bromide], the log2 surviving fraction was determined as 0.446.

With `CN(C)CCOC(c1ccccc1)c1ccccc1` [Diphenhydramine HCl (Benadryl)], the log2 surviving fraction worked out at 0.446.

For `C#CCC(Cc1cnc2nc(N)nc(N)c2n1)c1ccc(C(=O)N[C@@H](CCC(=O)O)C(=O)O)cc1` (some centres undefined) [Pralatrexate (Folotyn)], the log2 surviving fraction is -1.93.

As to `CCN(CC)CC(=O)Nc1c(C)cccc1C` [Lidocaine (Alphacaine)], the log2 surviving fraction was -0.156.

For the compound `COC(=O)[C@H](Cc1ccccc1)NC(=O)[C@@H](N)CC(=O)O` [Aspartame], the log2 surviving fraction came to 1.61.

For `C=CC[N+]1([C@H]2C[C@H]3[C@@H]4CC[C@H]5C[C@H](O)[C@@H](N6CCOCC6)C[C@]5(C)[C@H]4CC[C@]3(C)[C@H]2OC(C)=O)CCCC1` [Rocuronium bromide], the log2 surviving fraction amounted to 1.23.

Turning to `C#C[C@]1(O)C=C[C@H]2[C@@H]3CCC4=CC(=O)CC[C@@H]4[C@H]3CC[C@@]21CC` [Gestodene], the log2 surviving fraction was -0.321.
